# In the supplement of paper PMC8728848:
# The list shows a part of the results.
# B1: GS7807P-bth-537-23-537 (Bacteroides thetaiotaomicron) (protein)
# chain: NYENINSNPYEAPDLSADGYALGSAMNNLAGCVVSPDVNTAQFTDCLLGGPLGGYFADSNAGFTETISNFNPKDDWSRVFLKSDKIIPTLYSNLTQVKLVSQNTNDPVPYAIAQVIKVAAMHRVTDAFGPIPYSQIGANGEIATPYDSQEVTYNTFFDELNAAIATLNENSNEQLVPTADYIYKGDVKKWIRFANSLKLRLAIRIAYANPVKAQQMAEEAVNPANGGVIESNADNATWNYFETSQNPIYVATRYNQVQTSDHGGVPCLTGGDTHAAADIICYMNGYKDNRREKFFTKSEWAGQDYVGMRRGIVIPELKTTGHKYSGVNIAPTSPLYWMNAAEVAFLRAEGQAVFNFSMGGTAESFYNQGIRLSFEQWGADGVEDYLKDDVNKPTAYTDPAGTNTYQNALSNITIKWNDSADKEEKQERIIVQKWIANWQLGNEAWADFRRTGYPKLIPVKENKSGGVVDSEKGARRMPYPLDEFVSNKANVEYAIANYLHGADNMATDVWWASKK
# Experiments:
# Assay in all cases: glycan array binding signal (z-score within array); higher = stronger binding
# Conditions in all cases: glycan notation: IUPAC condensed, linker removed
# [1] = biological target: Gal(b1-4)GlcNAc(b1-2)Man(a1-3)[Gal(b1-4)GlcNAc(b1-2)Man(a1-6)]Man(b1-4)GlcNAc(b1-4)[Fuc(a1-6)]GlcNAc
# Method in brief: (§1)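 Glycan array binding is given as a within-array Z-score, which can be read as non-binding when negative. The arrays, 3228 of them, came from the Consortium for Functional Glycomics database and were retained only where the protein sequence was available. Z-scores were averaged across arrays of the same protein sequence at different concentrations or buffers and across linkers.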
# [2] = biological target: Gal(b1-4)GlcNAc(b1-2)Man(a1-3)[Gal(b1-4)GlcNAc(b1-2)Man(a1-6)][Gal(b1-4)GlcNAc(b1-4)]Man(b1-4)GlcNAc(b1-4)[Fuc(a1-6)]GlcNAc
# Method in brief: as §1
# [3] = biological target: Gal(b1-4)GlcNAc(b1-2)Man(a1-3)[Gal(b1-4)GlcNAc(b1-2)Man(a1-6)][GlcNAc(b1-4)]Man(b1-4)GlcNAc(b1-4)[Fuc(a1-6)]GlcNAc
# Method in brief: as §1
# [4] = biological target: Gal(b1-4)GlcNAc(b1-2)Man(a1-3)[GlcNAc(b1-2)Man(a1-6)]Man(b1-4)GlcNAc(b1-4)GlcNAc
# Method in brief: as §1
# [5] = biological target: Gal(b1-4)GlcNAc(b1-2)Man(a1-3)[GlcNAc(b1-4)][Gal(b1-4)GlcNAc(b1-2)Man(a1-6)]Man(b1-4)GlcNAc(b1-4)GlcNAc
# Method in brief: as §1
# [6] = biological target: Gal(b1-4)GlcNAc(b1-2)Man(a1-3)[Man(a1-6)]Man(b1-4)GlcNAc(b1-4)GlcNAc
# Method in brief: as §1
# [7] = biological target: Gal(b1-4)GlcNAc(b1-2)Man(a1-6)Man(b1-4)GlcNAc(b1-4)GlcNAc
# Method in brief: as §1
# [8] = biological target: Gal(b1-4)GlcNAc(b1-2)Man(a1-6)[GlcNAc(b1-2)Man(a1-3)]Man(b1-4)GlcNAc(b1-4)GlcNAc
# Method in brief: as §1
# [9] = biological target: Gal(b1-4)GlcNAc(b1-2)Man(a1-6)[Man(a1-3)]Man(b1-4)GlcNAc(b1-4)GlcNAc
# Method in brief: as §1
# [10] = biological target: Gal(b1-4)GlcNAc(b1-2)[Gal(b1-4)GlcNAc(b1-4)]Man(a1-3)[Gal(b1-4)GlcNAc(b1-2)Man(a1-6)]Man(b1-4)GlcNAc(b1-4)GlcNAc
# Method in brief: as §1
# [11] = biological target: Gal(b1-4)GlcNAc(b1-2)[Gal(b1-4)GlcNAc(b1-4)]Man(a1-3)[Gal(b1-4)GlcNAc(b1-2)[Gal(b1-4)GlcNAc(b1-6)]Man(a1-6)]Man(b1-4)GlcNAc(b1-4)GlcNAc
# Method in brief: as §1
# [12] = biological target: Gal(b1-4)GlcNAc(b1-2)[Gal(b1-4)GlcNAc(b1-4)]Man(a1-3)[GlcNAc(b1-4)][Gal(b1-4)GlcNAc(b1-2)Man(a1-6)]Man(b1-4)GlcNAc(b1-4)GlcNAc
# Method in brief: as §1
# [13] = biological target: Gal(b1-4)GlcNAc(b1-2)[Gal(b1-4)GlcNAc(b1-4)]Man(a1-3)[GlcNAc(b1-4)][Gal(b1-4)GlcNAc(b1-2)[Gal(b1-4)GlcNAc(b1-6)]Man(a1-6)]Man(b1-4)GlcNAc(b1-4)GlcNAc
# Method in brief: as §1
# [14] = biological target: Gal(b1-4)GlcNAc(b1-2)[Gal(b1-4)GlcNAc(b1-6)]Man(a1-6)[Gal(b1-4)GlcNAc(b1-2)Man(a1-3)]Man(b1-4)GlcNAc(b1-4)GlcNAc
# Method in brief: as §1
# [15] = biological target: Gal(b1-4)GlcNAc(b1-2)[Gal(b1-4)GlcNAc(b1-6)]Man(a1-6)[Gal(b1-4)GlcNAc(b1-2)Man(a1-3)]Man(b1-4)GlcNAc(b1-4)[Fuc(a1-6)]GlcNAc
# Method in brief: as §1
# [16] = biological target: Gal(b1-4)GlcNAc(b1-2)[Gal(b1-4)GlcNAc(b1-6)]Man(a1-6)[GlcNAc(b1-4)][Gal(b1-4)GlcNAc(b1-2)Man(a1-3)]Man(b1-4)GlcNAc(b1-4)GlcNAc
# Method in brief: as §1
# [17] = biological target: Gal(b1-4)GlcNAc(b1-2)[Gal(b1-4)GlcNAc(b1-6)]Man(a1-6)[GlcNAc(b1-4)][Gal(b1-4)GlcNAc(b1-2)[Gal(b1-4)GlcNAc(b1-4)]Man(a1-3)]Man(b1-4)GlcNAc(b1-4)[Fuc(a1-6)]GlcNAc
# Method in brief: as §1
# [18] = biological target: Gal(b1-4)GlcNAc(b1-3)Gal(b1-3)GalNAc
# Method in brief: as §1
# [19] = biological target: Gal(b1-4)GlcNAc(b1-3)Gal(b1-3)GlcNAc
# Method in brief: as §1
binder,measurement,setting,value
B1,glycan array binding signal (z-score),[1],0.759
same,glycan array binding signal (z-score),[2],1.49
same,glycan array binding signal (z-score),[3],0.148
same,glycan array binding signal (z-score),[4],-0.348
same,glycan array binding signal (z-score),[5],1.4
same,glycan array binding signal (z-score),[6],-0.199
same,glycan array binding signal (z-score),[7],-0.307
same,glycan array binding signal (z-score),[8],-0.202
same,glycan array binding signal (z-score),[9],-0.04
same,glycan array binding signal (z-score),[10],-0.013
same,glycan array binding signal (z-score),[11],-0.235
same,glycan array binding signal (z-score),[12],-0.169
same,glycan array binding signal (z-score),[13],-0.125
same,glycan array binding signal (z-score),[14],-0.251
same,glycan array binding signal (z-score),[15],-0.271
same,glycan array binding signal (z-score),[16],2.06
same,glycan array binding signal (z-score),[17],-0.041
same,glycan array binding signal (z-score),[18],-0.208
same,glycan array binding signal (z-score),[19],0.037
